In all, about 350,000 compounds went through this assay and about 180 (0.051%) were called active. This list was built around the results that the source calls inconclusive (neither active nor inactive); the mix of calls is not that of the screen.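 Rule for the calls: active = mean replicate inhibition above about 25%, with every replicate also reaching it (limit read from the data, passing the limit was not always enough); inconclusive = only one of those two criteria met; inactive = neither criterion met.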
biological target: Protein disulfide-isomerase A6 (Homo sapiens) (UniProt Q15084); experiment: inhibitors of ERp5-driven insulin aggregation, primary screen, biochemical, turbidity, absorbance 650 nm, single point (AID 651711); details: 90 min, at 9.99 µM, active compounds read high
Chain of UniProt Q15084 (Q15084 whole entry, looked up): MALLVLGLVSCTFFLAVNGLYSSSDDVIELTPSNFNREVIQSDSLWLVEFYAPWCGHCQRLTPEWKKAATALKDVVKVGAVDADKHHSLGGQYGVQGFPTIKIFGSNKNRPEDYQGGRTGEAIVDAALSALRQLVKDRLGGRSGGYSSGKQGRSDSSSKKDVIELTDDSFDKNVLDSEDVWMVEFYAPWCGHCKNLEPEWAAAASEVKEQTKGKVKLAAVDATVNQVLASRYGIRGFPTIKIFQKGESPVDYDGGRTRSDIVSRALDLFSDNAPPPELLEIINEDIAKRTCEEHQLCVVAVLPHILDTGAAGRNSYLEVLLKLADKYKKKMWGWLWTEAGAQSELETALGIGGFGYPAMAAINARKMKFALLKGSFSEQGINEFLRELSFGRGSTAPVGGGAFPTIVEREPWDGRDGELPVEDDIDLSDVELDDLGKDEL

Row | SMILES | inhibition
1 | CC(=O)c1ccc(C(=O)NC2CC(C)(C)Cc3c2cnn3-c2ccccc2)cc1 (centres undefined) | inactive: 5.06%
2 | Cc1noc(C)c1NC(=O)Nc1cccc2c1O[C@@H](CN(C)Cc1ccncc1)[C@@H](C)CN([C@H](C)CO)C2=O | inactive: -6.26%
3 | CCOc1ccc(C(=O)NNC2CC(=O)N(Cc3ccc(Cl)cc3)C2=O)cc1OC (centres undefined) | inactive: 3.15%
4 | Clc1cccc(CSc2ccc(-c3cccnc3)nn2)c1 | inconclusive: 45.1%
5 | C[C@@H]1CN([C@@H](C)CO)C(=O)Cc2cc(NC(=O)Nc3ccccc3)ccc2O[C@H]1CN(C)CC1CC1 | inactive: -6.93%
6 | CC(=O)Nc1cccc(NC(=S)Nc2ccc(F)cc2F)c1 | inconclusive: 42.4%
7 | Cc1ccc(S(=O)(=O)N(C)C)cc1NC(=O)COC(=O)C1(c2ccccc2)CC1 | active: 27.8%
8 | CCCNC(=O)[C@H]1[C@H](CO)[C@H]2Cn3c(ccc(/C=C/c4ccccc4)c3=O)[C@@H]1N2C(C)=O | active: 71.5%
9 | CO[C@H]1CN(C)C(=O)c2cc(NC(=O)C3CCC3)ccc2OC[C@@H](C)N(Cc2ccncc2)C[C@@H]1C | inactive: 0.656%
10 | COc1ccc2c3c([nH]c2c1)[C@H](CO)N(C(=O)Nc1ccccc1F)CC31CCN(C(=O)C2CC2)CC1 | inactive: 7.38%
11 | Cc1ccc(NCC(=O)N/N=C/c2ccc(OC(=O)c3ccco3)cc2)cc1 | inactive: -0.005%
12 | O=C(O)CCn1c(O)c(C=C2N=c3ccccc3=N2)sc1=S | inconclusive: 42.4%
13 | CN(C)/C=N/C(=S)Nc1ccccc1 | inconclusive: 44.6%
14 | CCCCCCOc1ccc(N2C(=O)CC(NCc3ccc(S(N)(=O)=O)cc3)C2=O)cc1 (centres undefined) | inconclusive: 47.1%
15 | CC(=O)N1C[C@H]2CON(C)[C@H]2C[C@H]1c1cccc(-c2ccccc2)c1 | inactive: -14.7%
16 | Cc1ccc(-c2ccc3c(c2)O[C@@H](CN(C)C(=O)C2CC2)[C@H](C)CN([C@H](C)CO)S3(=O)=O)cc1 | inactive: -0.514%
17 | CCOC(=O)c1sc2nc(C)n(N)c(=O)c2c1C | inconclusive: 39.8%
18 | CC1=NN(C(=O)c2ccc(Cn3cc([N+](=O)[O-])cn3)cc2)C(O)(C(F)(F)F)C1 (centres undefined) | inconclusive: 41.6%
19 | CN(C(=O)CC1C(=O)NCCN1Cc1ccoc1)C1CCOCC1 (centres undefined) | inconclusive: 45.6%
20 | CN(C)C(CNC(=O)c1cccc(S(=O)(=O)Nc2ccccc2Cl)c1)c1ccco1 (centres undefined) | inactive: 9.6%
21 | COc1ccc(CCNCC(O)c2ccccc2)cc1 (centres undefined) | inconclusive: 30.1%
22 | Cc1cc(O)cc(=O)n1Cc1ccccc1 | inactive: -1.84%
23 | Cc1ccc(-c2ccc([C@@H]3[C@@H](CO)N4C(=O)CN(C(=O)c5cccnc5)C[C@@H]34)cc2)cc1 | inconclusive: 38.7%
24 | C[C@@H]1CN([C@@H](C)CO)C(=O)c2cccc(NS(=O)(=O)c3ccc(F)cc3)c2O[C@H]1CN(C)S(=O)(=O)c1ccccc1 | active: 46.2%
25 | COc1ccc(/C=N/NC(=O)c2cc[n+]([O-])cc2)cc1O | inactive: 3.41%

Row | SMILES | inhibition
26 | COc1cc(-n2c(=O)c3ccccc3n(CC(=O)c3ccc(F)cc3)c2=O)cc(OC)c1OC | inconclusive: 30.3%
27 | CN1CCN(CCc2cn3ncc(C#N)c3nc2-c2ccc(F)cc2)CC1 | inconclusive: 40.5%
28 | CS(=O)(=O)c1ccc2nc(NC(=O)Nc3cccc(Cl)c3)sc2c1 | inconclusive: 36.1%
29 | C[C@@H]1CN([C@@H](C)CO)C(=O)c2cc(NC(=O)c3ccccc3)ccc2O[C@@H](C)CCCCO[C@@H]1CN(C)C(=O)C1CCCCC1 | inactive: -3.07%
30 | CC(C)C[C@H](NC(=O)N1CCn2c1nc1ccccc12)C(=O)N[C@@H](Cc1ccccc1)C(=O)O | inactive: -0.361%
31 | COCCOC(=O)CSc1ncccc1-c1nc2cc(C)c(C)cc2[nH]1 | inconclusive: 39.9%
32 | CCCCCc1nnc(NC(=O)Cc2ccc([N+](=O)[O-])cc2)s1 | inactive: -13.4%
33 | CCOC(=O)C1=C(C)NC(C)=C(C(=O)OCC)C1C | inconclusive: 45.3%
34 | COCC(=O)Nc1ccc2c(c1)C(=O)N(C)C[C@@H](OC)[C@H](C)CN(C(=O)NC(C)C)[C@@H](C)CO2 | inconclusive: 33.7%
35 | COc1ccc2nc(Nc3nc4cc5c(cc4s3)OCCO5)sc2c1 | inconclusive: 41.6%
36 | O=C(CSc1nnc(-c2ccco2)n1-c1ccccc1)Nc1c(Cl)cc(Cl)cc1C(=O)O | inactive: -1.77%
37 | COc1ccccc1S(=O)(=O)N[C@H]1CC[C@H](CCNC(=O)C2CCOCC2)O[C@@H]1CO | inactive: 2.78%
38 | CCN(CC)c1ccc(/C=N/NC(=O)c2c[nH]c3ccccc23)cc1 | inconclusive: 39.5%
39 | CCc1ccccc1NC(=S)NC1CC2CCC(C1)N2Cc1ccc(F)cc1 (centres undefined) | inactive: 3.72%
40 | COc1ccc(N(CC(=O)NCCC2=CCCCC2)S(=O)(=O)c2ccccc2)c(OC)c1 | inactive: 8.44%
41 | O=C(NC1CCN(Cc2ccccc2)CC1)c1ccc(Oc2cc(Cl)cc(Cl)c2)o1 | inconclusive: 34.9%
42 | O=C1C2Sc3[nH]c(=O)sc3C(c3cc([N+](=O)[O-])ccc3O)C2C(=O)N1c1ccccc1 (centres undefined) | inconclusive: 40.6%
43 | COc1cccc(CC(NC(C)=O)C(=O)NC2CCN(c3ncccc3[N+](=O)[O-])CC2)c1 (centres undefined) | inconclusive: 41.8%
44 | COC(=O)CSc1ccc2nnc(-c3ccc(OC)c(OC)c3)n2n1 | inactive: -5.13%
45 | Cc1ccc(-n2nnnc2C(Cl)(Cl)c2nnnn2-c2ccc(C)cc2)cc1 | inconclusive: 31.1%
46 | C[C@H](CO)N1C[C@H](C)[C@@H](CN(C)Cc2ccncc2)Oc2cc(-c3ccccc3)ccc2S1(=O)=O | inconclusive: 58.4%
47 | Cc1ccccc1-c1nnc(-c2ccc(Cl)cc2)o1 | inconclusive: 45.5%
48 | C[C@@H]1CCCCO[C@@H](CN(C)Cc2ccc(C(=O)Nc3ccccc3N)cc2)[C@@H](C)CN([C@H](C)CO)C(=O)c2cc(NS(=O)(=O)c3cccs3)ccc2O1 | active: 70.1%
49 | C[C@@H]1CN([C@@H](C)CO)C(=O)c2cc(C#CC3(O)CCCC3)cnc2O[C@H]1CN(C)C(=O)Cc1cccnc1 | active: 27.8%

Reference: PubChem BioAssay AID651711 (Broad Institute, 2012)
